Results taken from paper PMC13083723 (Patterns, 2026).
About 190 (3.5%) of roughly 5,400 compounds showed an effect of 50% or more. This is one part of the list.

system: Vero-E6; assay: primary screen, phospholipidosis by LipidTOX staining; higher = more effect of the substance; conditions: 10 µM
Experimental: To measure drug-induced PLD in Vero-E6 cells, we used the HCS LipidTOX Red Phospholipidosis Detection Reagent (Invitrogen, #H34351), which is non-toxic to cell growth and remains well retained after aldehyde fixation. In this setup, compounds (at 10 μM concentration) and controls (amiodarone: 10 μM concentration; DMSO: 0.1 v/v %) were added to clear-bottom, 384-well plates (PhenoPlate 384-well, black, optically clear flat bottom, tissue-culture treated, Revvity #6057302) using the Echo Liquid Handler (Labcyte).

SMILES	result_ITMP [%]
C[C@H]1CCC/C=C/[C@@H]2C[C@H](O)C[C@H]2[C@H](O)/C=C/C(=O)O1	-2.38
C=CC[C@]1(O)CC[C@H]2[C@@H]3CCC4=CCCC[C@@H]4[C@H]3CC[C@@]21C	0.46
C=CC[C@]1(O)CC[C@H]2[C@@H]3CCC4=CC(=O)CCC4=C3C=C[C@@]21C	1.92
CC[C@H]1CN2CCC1C[C@@H]2[C@@H](O)c1ccnc2ccc(OC)cc12 (stereo partly drawn)	6.8
C#C[C@]1(O)CC[C@H]2[C@@H]3CCC4=CC(=O)CC[C@]4(C)[C@H]3CC[C@@]21C	-7.32
Oc1ccc2c3c1O[C@H]1c4oc5ccccc5c4C[C@@]4(O)[C@@H](C2)N(CC2CC2)CC[C@]314	6.87
CCCOC(C(=O)OC1CCN(C)CC1)(c1ccccc1)c1ccccc1	63.8
CC[C@H]1[C@@H]2C[C@H]3[C@@H]4N(C)c5ccccc5[C@]45C[C@@H]([C@H]2[C@H]5O)N3[C@@H]1O	-3.79
Cc1onc(O)c1C[C@H](N)C(=O)O [R4A_0004356_001 / SPE_K92493880]	-0.72
CC(=O)O[C@H]1C[C@H](O[C@H]2[C@@H](O)C[C@H](O[C@H]3[C@@H](O)C[C@H](O[C@H]4CC[C@@]5(C)[C@H](CC[C@@H]6[C@@H]5C[C@@H](O)[C@]5(C)[C@@H](C7=CC(=O)OC7)CC[C@]65O)C4)O[C@@H]3C)O[C@@H]2C)O[C@H](C)[C@H]1O[C@@H]1O[C@H](CO)[C@@H](O)[C@H](O)[C@H]1O	-8.98
COc1cc2c(cc1OC)[C@@]13CCN4CC5=CCO[C@H]6CC(=O)N2[C@H]1[C@H]6[C@H]5C[C@H]43	1.12
CN1[C@@H]2CC[C@H]1C[C@@H](OC1c3ccccc3CCc3ccccc31)C2	45.5
C[C@@H](N)C(=O)N[C@@H](CO)C(=O)N[C@H](C(=O)N[C@H](C(=O)N[C@H](C(=O)N[C@@H](CC(N)=O)C(=O)N[C@@H](Cc1ccc(O)cc1)C(=O)N[C@H](C(N)=O)[C@@H](C)O)[C@@H](C)O)[C@@H](C)O)[C@@H](C)O	0.21
C[C@@H]1CN([C@H]2CC[C@](C#N)(c3ccc(F)cc3)CC2)CC[C@]1(C(=O)O)c1ccccc1	-9.01
CN(CCc1ccc(Cl)c(Cl)c1)CCN1CCCC1	51.3
CCN1C[C@]2(COC(=O)c3ccccc3N3C(=O)C[C@H](C)C3=O)CC[C@H](OC)[C@@]34[C@@H]5C[C@H]6[C@H](OC)[C@@H]5[C@](O)(C[C@@H]6OC)[C@@](O)([C@@H](OC)[C@H]23)[C@@H]14	0.37
Oc1ccc2c3c1O[C@H]1c4[nH]c5ccccc5c4C[C@@]4(O)[C@@H](C2)N(CC2CC2)CC[C@]314	37.4
CO[C@H]1[C@H](O)[C@H](O[C@H]2CC[C@@]3(C=O)[C@H](CC[C@@H]4[C@@H]3CC[C@]3(C)[C@@H](C5=CC(=O)OC5)CC[C@]43O)C2)O[C@@H](C)[C@@H]1O	-16.8
CC1(N2CCC(n3c([C@@H]4CCCNC4)nc4ccccc43)CC2)CCCCCCC1	46
CC(=O)OC[C@]12CCC(C)=C[C@H]1O[C@@H]1[C@H](O)[C@@H](OC(C)=O)[C@@]2(C)[C@]12CO2	-25.8
COC(=O)C[C@](O)(CCC(C)(C)O)C(=O)O[C@@H]1C(OC)=C[C@]23CCCN2CCc2cc4c(cc2[C@H]13)OCO4	-10.1
CN1C[C@H](CNC(=O)OCc2ccccc2)C[C@@H]2c3cccc4c3c(cn4C)C[C@H]21	61.8
C[N@+]1(CC2CC2)CC[C@]23c4c5ccc(O)c4O[C@H]2C(=O)CC[C@@]3(O)[C@H]1C5	0.23
CN1[C@@H]2CC[C@H]1C[C@@H](OC(=O)c1cc(Cl)cc(Cl)c1)C2	9.65
